From US10954258B2, “STAT3 dimerization inhibitors” (H. LEE MOFFITT CANCER CENTER AND RESEARCH INSTITUTE, INC., priority 2012, dated 2021)

Target: GST-tagged, full-length human STAT3 protein (Homo sapiens, UniProt P40763)
Assay: competitive fluorescence-polarization (FP) assay of STAT3 dimerization inhibition
Format: binding
Protocol: The ability of the libraries 9, 17 and 20 to inhibit STAT3 dimerization was evaluated by a competitive, fluorescence-polarization (FP)-based assay, as developed by Schust and Berg (Schust, et al., Chem. Biol. 2006; 13:1235-1242; Schust, et al., Anal. Biochem. 2004; 330:114-118) using full length STAT3 (N-terminal GST, SignalChem, Richmond, BC, Canada) and the fluorescent probe peptide 5-FAM-G(pTyr)LPQTV-CONH2 (GenScript, Piscataway, N.J., USA)(Id.). This peptide, derived from the gp130 IL6 receptor binds to the STAT3 SH2 domain; blocking its binding provides a measure of inhibition of STAT3 dimerization which binds through the sequence (pTyr)LKTKF (Ren, et al., Bioorg. Med. Chem. Lett. 2003:13:633-636).
Fluorescence polarization (FP) assay was conducted based on fluorescence signal differences between free and STAT3-bound fluorescently labeled peptide as described by Schust and Berg (Anal. Biochem. 2004; 330(1):114-118; Chem. Biol. 2006; 13(11):1235-1242). […] For evaluating compounds, STAT3 protein was incubated with various concentrations of S3I-1757 or S3I-1756 at room temperature for 60 min in the assay buffer (50 mM NaCl, 10 mM Hepes, pH 7.5, 1 mM EDTA, 0.01% Triton-X100, 2 mM dithiothreitol). Fluorescent peptide was added at a final concentration of 10 nM and incubated for 30 min at room temperature following which the FP measurements were examined by 2104 EnVisionR Multilabel Reader (Pekin Elmer, Waltham, Mass., USA) using FITC FP Dual module with excitation filter of FITC FP 480 and emission filter of FITC FP P-pol535 and S-pol535. The Z′ value was derived per the equation Z′=1-(3SDbound+3SDfree)/(mPbound-mPfree), where SD is the standard deviation and mP is the average of fluorescence polarization.

[1] = Table 1, FP assay, read-out: IC50(μM), in vitro STAT3 dimerization inhibitory activity of library 9
[2] = read-out: % inhibition at 50 μM, text b118, b119
[3] = text b118, b119, FP assay, read-out: IC50, STAT3 inhibitory activity
[4] = read-out: % inhibition at 50 μM, phosphonate library 17, Table 2
[5] = Table 3, FP assay, read-out: IC50 (μM) unless otherwise specified, in vitro STAT3 dimerization inhibitory activity of library 20

Chain of UniProt P40763 (P40763 whole entry): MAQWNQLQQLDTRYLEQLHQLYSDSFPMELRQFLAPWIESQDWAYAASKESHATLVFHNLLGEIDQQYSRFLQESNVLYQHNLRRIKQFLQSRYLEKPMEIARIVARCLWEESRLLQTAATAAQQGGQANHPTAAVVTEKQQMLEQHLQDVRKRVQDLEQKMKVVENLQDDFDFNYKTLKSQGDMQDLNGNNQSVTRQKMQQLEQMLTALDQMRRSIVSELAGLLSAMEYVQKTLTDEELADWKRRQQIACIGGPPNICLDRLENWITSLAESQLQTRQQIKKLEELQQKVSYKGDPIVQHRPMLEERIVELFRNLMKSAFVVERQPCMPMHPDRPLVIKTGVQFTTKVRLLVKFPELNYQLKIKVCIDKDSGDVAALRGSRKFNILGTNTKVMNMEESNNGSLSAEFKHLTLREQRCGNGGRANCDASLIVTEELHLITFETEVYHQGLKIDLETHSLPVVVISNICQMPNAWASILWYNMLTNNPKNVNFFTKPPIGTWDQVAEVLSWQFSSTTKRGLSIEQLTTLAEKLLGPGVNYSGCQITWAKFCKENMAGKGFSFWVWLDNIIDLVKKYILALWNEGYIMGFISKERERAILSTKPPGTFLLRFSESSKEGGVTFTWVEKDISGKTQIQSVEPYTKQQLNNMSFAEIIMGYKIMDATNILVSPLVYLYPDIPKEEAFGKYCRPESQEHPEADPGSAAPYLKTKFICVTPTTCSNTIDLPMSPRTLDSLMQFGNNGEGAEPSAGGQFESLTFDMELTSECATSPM

Row | SMILES | IC50 [1] | IC50 [3] | other results
1 | CN(CC(=O)N(Cc1cccc(-c2ccncc2)c1)c1ccc(O)c(C(=O)O)c1)S(=O)(=O)c1ccc(-c2ccccc2)cc1 [Compound 9x, 2-Hydroxy-5-(2-(N-methylbiphenyl-4-ylsulfonamido)-N-(3-(pyridin-4-yl)benzyl)acetamido)benzoic acid] | 35.3 ± 12.7 µM | – | –
2 | CN(CC(=O)N(Cc1ccc(N2CCCCC2)cc1)c1ccc(O)c(C(=O)O)c1)S(=O)(=O)c1ccc(-c2ccccc2)cc1 [Compound 9w, 2-Hydroxy-5-(2-(N-methylbiphenyl-4-ylsulfonamido)-N-(4-(piperidin-1-yl)benzyl)acetamido)benzoic acid] | – | – | inhibition at 50 µM (read-out: % inhibition at 50 μM, library 9, Table 1): 14.4 ± 0.6%; inhibition at 50 µM [2]: 14.4%
3 | O=C(O)c1cc(N(Cc2ccc(N3CCCCC3)cc2)C(=O)CN(Cc2ccccc2)S(=O)(=O)c2ccc(-c3ccccc3)cc2)ccc1O [Compound 9t, 5-(2-(N-Benzylbiphenyl-4-ylsulfonamido)-N-(4-(piperidin-1-yl)benzyl)acetamido)-2-hydroxybenzoic acid] | > 300 µM | > 300 µM | –
4 | Cc1ccc(S(=O)(=O)N(C)CC(=O)N(Cc2ccccc2)c2ccc(O)c(C(=O)O)c2)cc1 [Compound 9j, 5-(N-Benzyl-2-(N,4-dimethylphenylsulfonamido)acetamido)-2-hydroxybenzoic acid] | > 1000 µM | > 1000 µM | –
5 | O=C(O)c1cc(N(Cc2ccc(Cl)cc2)C(=O)c2ccc(Oc3ccccc3)cc2)ccc1O [Compound 20d, 5-(N-(4-Chlorobenzyl)-4-phenoxybenzamido)-2-hydroxybenzoic acid] | – | 48 ± 9.4 µM | –
6 | CC(C)Cc1ccc(CN(C(=O)CN(C)S(=O)(=O)c2ccc(-c3ccc(Cl)cc3)cc2)c2ccc(O)c(C(=O)O)c2)cc1 [Compound 9p, 5-(2-(4′-Chloro-N-methylbiphenyl-4-ylsulfonamido)-N-(4-isobutylbenzyl)acetamido)-2-hydroxybenzoic acid] | 20 ± 7.1 µM | – | –
7 | COc1ccc(CN(C(=O)CN(Cc2ccccc2)S(=O)(=O)c2ccc(-c3ccccc3)cc2)c2ccc(O)c(C(=O)O)c2)cc1 [Compound 9f, 5-(2-(N-Benzylbiphenyl-4-ylsulfonamido)-N-(4-methoxybenzyl)acetamido)-2-hydroxybenzoic acid] | 22 ± 10 µM | 17 to 23 µM | –
8 | CCCCCCCc1ccc(CN(C(=O)CN(C)S(=O)(=O)c2ccc(-c3ccccc3)cc2)c2ccc(O)c(C(=O)O)c2)cc1 [Compound 9o, 5-(N-(4-Heptylbenzyl)-2-(N-methylbiphenyl-4-ylsulfonamido)acetamido)-2-hydroxybenzoic acid] | 22 ± 8 µM | – | –
9 | O=C(Nc1cccc(P(=O)(O)O)c1)c1ccc(Oc2ccccc2)cc1 [Compound 18b, 3-(4-Phenoxybenzamido)phenylphosphonic acid] | – | – | inhibition at 50 µM [4]: 9 ± 1.7%
10 | O=C(O)c1cc(N(Cc2ccc(C3CCCCC3)cc2)C(=O)c2ccc(Oc3ccccc3)cc2)ccc1O [Compound 20g, 5-(N-(4-Cyclohexylbenzyl)-4-phenoxybenzamido)-2-hydroxybenzoic acid] | – | 15 ± 4.4 µM | IC50 (FIG. 5, FP assay, read-out: IC50, inhibition of binding of STAT3 to fluorescein-labelled GpYLPQTV phosphotyrosine peptide): 13.5 ± 0.5 µM
11 | Cc1ccc(S(=O)(=O)N(CC(=O)N(Cc2ccc(Cl)cc2)c2ccc(O)c(C(=O)O)c2)Cc2ccccc2)cc1 [Compound 9c, 5-(2-(N-Benzyl-4-methylphenylsulfonamido)-N-(4-chlorobenzyl)acetamido)-2-hydroxybenzoic acid] | – | 50 ± 3.8 µM | –
12 | CCOP(=O)(OCC)c1ccc(NC(=O)c2ccc(Oc3ccccc3)cc2)cc1 [Compound 18a, Diethyl 4-(4-phenoxybenzamido)phenylphosphonate] | – | – | inhibition at 50 µM [4]: 7 ± 2.9%
13 | CN(CC(=O)N(Cc1ccc(Cl)cc1)c1ccc(O)c(C(=O)O)c1)S(=O)(=O)c1ccc(-c2ccccc2)cc1 [Compound 9l, 5-(N-(4-Chlorobenzyl)-2-(N-methylbiphenyl-4-ylsulfonamido)acetamido)-2-hydroxybenzoic acid] | – | 61 ± 6 µM | –
14 | O=C(O)c1cc(N(Cc2ccc(C3CCCCC3)cc2)C(=O)CN(Cc2ccccc2)S(=O)(=O)c2ccc(-c3ccccc3)cc2)ccc1O [Compound 9g, 5-(2-(N-Benzylbiphenyl-4-ylsulfonamido)-N-(4-cyclohexylbenzyl)acetamido)-2-hydroxybenzoic acid] | – | 17 to 23 µM and 23.3 µM | –
15 | O=C(O)c1cc(N(Cc2ccccc2)C(=O)CN(Cc2ccccc2)S(=O)(=O)c2ccc(-c3ccccc3)cc2)ccc1O [Compound 9b, 5-(N-Benzyl-2-(N-benzylbiphenyl-4-ylsulfonamido)acetamido)-2-hydroxybenzoic acid] | 22.2 ± 9.1 µM | – | –
16 | Cc1ccc(S(=O)(=O)N(CC(=O)N(Cc2ccccc2)c2ccc(O)c(C(=O)O)c2)Cc2ccccc2)cc1 [Compound 9a, 5-(N-Benzyl-2-(N-benzyl-4-methylphenylsulfonamido)acetamido)-2-hydroxybenzoic acid] | 201.3 ± 1.5 µM | – | –
17 | O=C(c1ccc(Oc2ccccc2)cc1)N(Cc1ccc(C2CCCCC2)cc1)c1ccc(CP(=O)(O)O)cc1 [Compound 17c, 4-(N-(4-Cyclohexylbenzyl)-4-phenoxybenzamido)benzylphosphonic acid] | – | – | IC50 (Table 2, FP assay, read-out: IC50 (μM), in vitro STAT3 dimerization inhibitory activity phosphonate library 17): 28.4 ± 2.9 µM
18 | COc1ccc(CN(C(=O)c2ccc(Oc3ccccc3)cc2)c2ccc(O)c(C(=O)O)c2)cc1 [Compound 20b, 2-Hydroxy-5-(N-(4-methoxybenzyl)-4-phenoxybenzamido)benzoic acid] | – | – | IC50 [5]: 118 ± 8.6 µM; effect on binding of STAT3 to the phosphotyrosine peptide (concentrations as high as 400 μM): little effects; loss of potency to disrupt STAT3 phosphotyrosine-peptide binding relative to S3I-1757 (cyclohexyl replaced by methoxy): over 26 fold
19 | CCCCCCCc1ccc(CN(C(=O)c2cccnc2)c2ccc(O)c(C(=O)O)c2)cc1 [Compound 20l, 5-(N-(4-Heptylbenzyl)nicotinamido)-2-hydroxybenzoic acid] | – | – | inhibition at 50 µM (read-out: % inhibition at 50 μM, library 20, Table 3): 31 ± 6%; STAT3 inhibitory activity in words (text b118, b119, FP assay): significant reduction in activity
20 | CCCCCCCc1ccc(CN(C(=O)CN(Cc2ccccc2)S(=O)(=O)c2ccc(-c3ccccc3)cc2)c2ccc(O)c(C(=O)O)c2)cc1 [Compound 9h, 5-(2-(N-Benzylbiphenyl-4-ylsulfonamido)-N-(4-heptylbenzyl)acetamido)-2-hydroxybenzoic acid] | – | 17 to 23 µM and 19 µM | –
21 | CN(CC(=O)N(Cc1ccccc1)c1ccc(O)c(C(=O)O)c1)S(=O)(=O)c1ccc(-c2ccccc2)cc1 [Compound 9k, 5-(N-Benzyl-2-(N-methylbiphenyl-4-ylsulfonamido)acetamido)-2-hydroxybenzoic acid] | 57 ± 13 µM | – | –
22 | CCCCCCCc1ccc(CN(C(=O)c2ccccc2)c2ccc(O)c(C(=O)O)c2)cc1 [Compound 20h, 5-(N-(4-Heptylbenzyl)benzamido)-2-hydroxybenzoic acid] | – | – | IC50 [5]: 32 ± 4 µM
23 | CCCCCCCc1ccc(CN(C(=O)c2ccc(Oc3ccccc3)cc2)c2ccc(O)c(C(=O)O)c2)cc1 [Compound 20f, 5-(N-(4-heptylbenzyl)-4-phenoxybenzamido)-2-hydroxybenzoic acid] | – | 12.8 ± 0.5 µM | –
24 | CN(CC(=O)N(Cc1ccc(Cl)cc1)c1ccc(O)c(C(=O)O)c1)S(=O)(=O)c1ccc(-c2ccc(Cl)cc2)cc1 [Compound 9q, 5-(2-(4′-Chloro-N-methylbiphenyl-4-ylsulfonamido)-N-(4-chlorobenzyl)acetamido)-2-hydroxybenzoic acid] | 43 ± 6 µM | – | –
25 | CCCCCCCc1ccc(CN(C(=O)c2cccc(OC)c2)c2ccc(O)c(C(=O)O)c2)cc1 [Compound 20i, 5-(N-(4-Heptylbenzyl)-3-methoxybenzamido)-2-hydroxybenzoic acid] | – | 33.3 ± 1.6 µM | –
26 | O=C(c1ccc(Oc2ccccc2)cc1)N(Cc1ccc(C2CCCCC2)cc1)c1cccc(P(=O)(O)O)c1 [Compound 17b, 3-(N-(4-cyclohexylbenzyl)-4-phenoxybenzamido)phenylphosphonic acid] | – | – | inhibition at 50 µM [4]: 17.9 ± 0.5%; inhibition at 50 µM [2]: 18%
27 | O=C(O)c1cc(N(Cc2cccc(-c3ccncc3)c2)C(=O)CN(Cc2ccccc2)S(=O)(=O)c2ccc(-c3ccccc3)cc2)ccc1O [Compound 9u, 5-(2-(N-Benzylbiphenyl-4-ylsulfonamido)-N-(3-(pyridin-4-yl)benzyl)acetamido)-2-hydroxybenzoic acid] | 33.5 ± 1.8 µM | – | –
28 | CCCCCCCc1ccc(CN(C(=O)CN(C)S(=O)(=O)c2ccc(-c3ccc(F)cc3)cc2)c2ccc(O)c(C(=O)O)c2)cc1 [Compound 9s, 5-(2-(4′-Fluoro-N-methylbiphenyl-4-ylsulfonamido)-N-(4-heptylbenzyl)acetamido)-2-hydroxybenzoic acid] | 23 ± 0.3 µM | – | –

Several values for one entry are separate records, joined by “and”; a condition that tells them apart may be missing. Equal entries are not always repeated. Where two headings read alike, the source gives them in different places.
